# Experimental data reported in the supplement of paper PMC10338343.
# ± gives the standard deviation. Only a part is listed here, and it is no random draw.
# System: MIWI (PIWIL1) piRISC loaded with L1MC piRNA (30 nt)
# Test: pre-steady-state target cleavage rate (min^-1); MIWI and MILI are mouse PIWI proteins and EfPiwi is from a freshwater sponge; tags in brackets are library labels; higher = faster piRNA-guided slicing of the target
# Conditions: guide: L1MC piRNA 5'p-UAACUAAAUACUAUGCAAGCUGUAGGUCCU
# Summary of the method: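 The pre-steady-state cleavage rate was calculated from a burst-and-steady-state fit. Data came from Cleave-'n-Seq, in which […] transcribed, DNA-blocked target RNA library was mixed with 1 nM active affinity-purified piRISC carrying one synthetic guide, with or without 500 nM GTSF1 partner protein, in HEPES–potassium acetate buffer at 33 °C for 0–8 or 0–960 min. Uncleaved targets were sequenced and normalised to depth and to weakly complementary targets, three trials were pooled, and k3 was capped at 0.0001 min^-1.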
# [1] = auxiliary factor: 500 nM mouse GTSF1
# [2] = auxiliary factor: none (no GTSF1)
# 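Also: 1 nM active piRISC with 0.1 nM target library at 33 °C single turnover.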
sequence,measurement,setting,value
UGGACCUACAGCUUGCAUAGUAUUUAAGUUA,pre-steady-state target cleavage rate,[1],1.07 ± 0.07
same,pre-steady-state target cleavage rate,[2],0.0479 ± 0.0099
UGGACCUACACCUUGCAUAGUAUUUAGUUA,pre-steady-state target cleavage rate,[1],1.23 ± 0.045
same,pre-steady-state target cleavage rate,[2],0.0585 ± 0.0088
UCCUGGAUGUCCUUGCAUAGUCAUUUAGUUA,pre-steady-state target cleavage rate,[1],0.00612 ± 0.004
same,pre-steady-state target cleavage rate,[2],0.00388 ± 0.0036
UCGACCUACACCUUGCUUAGUAUUUAGUUA,pre-steady-state target cleavage rate,[1],1.07 ± 0.052
same,pre-steady-state target cleavage rate,[2],0.0351 ± 0.006
UCCACCUUCAGCUUCCAUAGUAUUUAGUUA,pre-steady-state target cleavage rate,[1],0.0557 ± 0.017
same,pre-steady-state target cleavage rate,[2],0.00309 ± 0.0018
UCCUGGAUCAGCUUGCAUAGUAUAUAGAUA,pre-steady-state target cleavage rate,[1],0.138 ± 0.025
same,pre-steady-state target cleavage rate,[2],0.0055 ± 0.003
UCCUGGAUGUCCUUGCAUAGUAUUUAAUUA,pre-steady-state target cleavage rate,[1],0.051 ± 0.0096
same,pre-steady-state target cleavage rate,[2],0.0052 ± 0.0027
UCCUCCUAGAGCUUGCUUAGUAUUUAGUUA,pre-steady-state target cleavage rate,[1],1.04 ± 0.059
same,pre-steady-state target cleavage rate,[2],0.0213 ± 0.0041
UGGUCCUACAGCUUGCAUAGUAUUUUGUUA,pre-steady-state target cleavage rate,[1],0.679 ± 0.03
same,pre-steady-state target cleavage rate,[2],0.0592 ± 0.011
UGGACCUACAGCUUGCAUAGUAUAAAGUAA,pre-steady-state target cleavage rate,[1],0.213 ± 0.028
same,pre-steady-state target cleavage rate,[2],0.00435 ± 0.0024
UCCUGCUACAGCAUGCAUAGAAUUUAGUUA,pre-steady-state target cleavage rate,[1],0.351 ± 0.047
same,pre-steady-state target cleavage rate,[2],0.009 ± 0.0029
UCCUGGAACAUCUUGCAUAGUAUUUAGUUA,pre-steady-state target cleavage rate,[1],1.07 ± 0.046
same,pre-steady-state target cleavage rate,[2],0.0385 ± 0.0067
AGGACCUACAGCUUGCAUAGUAUUUGAGUUA,pre-steady-state target cleavage rate,[1],0.815 ± 0.084
same,pre-steady-state target cleavage rate,[2],0.0761 ± 0.016
UCCUCCUAGAGCUUGCAUAGUAAUUAGUUA,pre-steady-state target cleavage rate,[1],0.745 ± 0.079
same,pre-steady-state target cleavage rate,[2],0.0146 ± 0.0025
UCCUGGAUCAGCUUGCAUAGUAGUUAGUUA,pre-steady-state target cleavage rate,[1],0.571 ± 0.039
same,pre-steady-state target cleavage rate,[2],0.0184 ± 0.0056
UCCUGGUACAGCUUGCAAAGUAUAUAGUUA,pre-steady-state target cleavage rate,[1],0.396 ± 0.057
same,pre-steady-state target cleavage rate,[2],0.0222 ± 0.0067
UCCUGCUACGGCUUGCAUAGUAUUUAGUUA,pre-steady-state target cleavage rate,[1],0.998 ± 0.057
same,pre-steady-state target cleavage rate,[2],0.0399 ± 0.0072
UCCUGGAUGAGCAUGCAUAGUAUAUAGUUA,pre-steady-state target cleavage rate,[1],0.157 ± 0.021
same,pre-steady-state target cleavage rate,[2],0.00567 ± 0.0024
UCCUCCUACAGCUUGCAUAGUAUUUAGGUUA,pre-steady-state target cleavage rate,[1],0.442 ± 0.055
same,pre-steady-state target cleavage rate,[2],0.0235 ± 0.0058
UCCUGGUACAAGCUUGCAUAGUAUUUAGUUA,pre-steady-state target cleavage rate,[1],0.474 ± 0.045
same,pre-steady-state target cleavage rate,[2],0.0473 ± 0.0088
UCCUGCAACAGCUUGCAUAGUAUUAAGUUA,pre-steady-state target cleavage rate,[1],0.732 ± 0.046
same,pre-steady-state target cleavage rate,[2],0.0229 ± 0.0047
UGGACCUUCAGCUUGCAUACUAUUUAGUUA,pre-steady-state target cleavage rate,[1],0.321 ± 0.019
same,pre-steady-state target cleavage rate,[2],0.035 ± 0.0073
UCCUGGAUCAGGUUGGAUAGUAUUUAGUUA,pre-steady-state target cleavage rate,[1],0.375 ± 0.042
same,pre-steady-state target cleavage rate,[2],0.00595 ± 0.003
UCGACCUACAGCAUUGCAUAGUAUUUAGUUA,pre-steady-state target cleavage rate,[1],1.19 ± 0.082
same,pre-steady-state target cleavage rate,[2],0.0581 ± 0.012
UCCUGGCACAGCUUGCAUAGUAUUUAGUUA,pre-steady-state target cleavage rate,[1],0.456 ± 0.081
same,pre-steady-state target cleavage rate,[2],0.0452 ± 0.011
UCGACCUACACCUUGCAUACUAUUUAGUUA,pre-steady-state target cleavage rate,[1],0.284 ± 0.026
same,pre-steady-state target cleavage rate,[2],0.0281 ± 0.0057
UCCUGGAACAGCUUGGAUAGAAUUUAGUUA,pre-steady-state target cleavage rate,[1],0.268 ± 0.048
same,pre-steady-state target cleavage rate,[2],0.0189 ± 0.0064
UCCUCCUACUGCUUGCAUAGUAUUUAGAUA,pre-steady-state target cleavage rate,[1],0.185 ± 0.024
same,pre-steady-state target cleavage rate,[2],0.0115 ± 0.002
UCCUGGAACAGCUUGCAUAGUAUAUAGUAA,pre-steady-state target cleavage rate,[1],0.275 ± 0.04
same,pre-steady-state target cleavage rate,[2],0.0122 ± 0.0031
AGGUGCUACAGCUUGCAUAGUAUUUAGAAA,pre-steady-state target cleavage rate,[1],0.165 ± 0.037
same,pre-steady-state target cleavage rate,[2],0.00465 ± 0.0018
UCCUGGAUGUGCUUGCAAAGUAUUAAGUUA,pre-steady-state target cleavage rate,[1],0.0289 ± 0.0064
same,pre-steady-state target cleavage rate,[2],0.0112 ± 0.0033
UGGACCUACAGCUUGCAUACUAAUUAGUUA,pre-steady-state target cleavage rate,[1],0.154 ± 0.01
same,pre-steady-state target cleavage rate,[2],0.00958 ± 0.0024
UCCAGCUACAGCUUGCAUAGUAUUAAGUUA,pre-steady-state target cleavage rate,[1],0.558 ± 0.043
same,pre-steady-state target cleavage rate,[2],0.015 ± 0.0026
UGGACCUACAGCUUGCAUUGUAUUUAGUUA,pre-steady-state target cleavage rate,[1],0.957 ± 0.049
same,pre-steady-state target cleavage rate,[2],0.038 ± 0.0095
UCCACCUACAGCUUGCAUAGUAUUUAGGUA,pre-steady-state target cleavage rate,[1],0.3 ± 0.054
same,pre-steady-state target cleavage rate,[2],0.00404 ± 0.0029
UCCUCCUACAGCUUGCAAUGUAUUUAGUUA,pre-steady-state target cleavage rate,[1],0.517 ± 0.031
same,pre-steady-state target cleavage rate,[2],0.00506 ± 0.0019
UCCUGGAUCAGCUUGCUAAGUAUUUAGUUA,pre-steady-state target cleavage rate,[1],0.0172 ± 0.0046
same,pre-steady-state target cleavage rate,[2],0.0042 ± 0.0023
UCCUGGAUGUCGAACGUUAGUUUAUAGUUA,pre-steady-state target cleavage rate,[1],< 0.0001
same,pre-steady-state target cleavage rate,[2],< 0.0001
UCGAGCUACAGGUUGCAUAGUAUUUAGUUA,pre-steady-state target cleavage rate,[1],1 ± 0.049
same,pre-steady-state target cleavage rate,[2],0.0349 ± 0.0061
UCCUGGUACAGCUAGCAUAGAAUUUAGUUA,pre-steady-state target cleavage rate,[1],0.489 ± 0.071
same,pre-steady-state target cleavage rate,[2],0.00648 ± 0.0025
AGGACCUACUGCUUGCAUAGUAUUAAGUUA,pre-steady-state target cleavage rate,[1],0.616 ± 0.045
same,pre-steady-state target cleavage rate,[2],0.0365 ± 0.0059
AGGACCUACACCUAGCAUAGUAUUUAGUUA,pre-steady-state target cleavage rate,[1],1.01 ± 0.04
same,pre-steady-state target cleavage rate,[2],0.029 ± 0.005
UGGACCUACAGCAUGCUUAGUAUUUAGUUA,pre-steady-state target cleavage rate,[1],0.877 ± 0.056
same,pre-steady-state target cleavage rate,[2],0.0147 ± 0.0037
UCCUCCUACAGGUUGCAUAGUAUUUAGUAA,pre-steady-state target cleavage rate,[1],0.845 ± 0.061
same,pre-steady-state target cleavage rate,[2],0.0122 ± 0.0028
AGGACCAUCAGCUUGCAUAGUAUUUUCAAA,pre-steady-state target cleavage rate,[1],0.404 ± 0.054
same,pre-steady-state target cleavage rate,[2],0.00578 ± 0.0024
UCCUGCUACAGCUCGCAUAGUAUUUAGUUA,pre-steady-state target cleavage rate,[1],1.14 ± 0.062
same,pre-steady-state target cleavage rate,[2],0.0391 ± 0.0067
